Tested on: CT26 colon cancer cells
Conditions: 2 doses of 25 μg/dose cdAMP(ps)2 intratumorally
Description: When tumor size reach ˜60 mm^3, 2 doses of 25 μg/dose cdAMP(ps)2 were administrated intra-tumorally on days 10 and 15. To evaluate antigen-specific immune responses, PBMCs were collected for tetramer staining on day 17 and ELISPOT analysis with AH1 antigen peptides on day 22. […] For the survival of mice after treatment, median survival time for untreated. CDN, CDN-Zn and CDNs@CaP/PEI-PEG group was 23 days, 42 days, 64 days and unreached, respectively (FIG. 4B).
For PBMC tetramer staining assay, no significant difference was observed among the groups (FIG. 4D). PBMC tetramer staining may not be sensitive enough to show antigen-specific T cell response after non-specific intra-tumoral CDN stimulation or the time point may not have been optimal. […]
All animals were cared for following federal, state, and local guidelines. […] Tumor size and survival were monitored every 2 or 3 days. Tumor size was calculated based on equation: volume=length×width^2×0.5. […] At day 17, the percentages of tumor antigen-specific CD8α+ T cells among PBMC were analyzed using the tetramer staining assay as described previously with peptide-MHC tetramer (H-2Kb-restricted AH1) (the NIH Tetramer Core Facility, Atlanta, GA). […]
We also evaluated a subset of the formulations mentioned above in tumor-bearing mice. […]

In the case of cdAMP(ps)2 [free CDN], the median survival time is reported as 42 days and the “average tumor growth compared with the untreated group” value (days 10 and 15) is reported as “greatly delayed”.

Reference: patent publication US12622922B2, “Compositions and methods for metal containing formulations capable of modulating immune response” (The Regents of the University of Michigan, priority 2018, dated 2026)
